The list shows a part of the results. At the low end of the ranking the order means little. Measured with an extract: partners may take part in the binding.
Biological target: T1, HNF4alpha2 (COS-7 nuclear extract) (UniProt P41235)
T1 sequence: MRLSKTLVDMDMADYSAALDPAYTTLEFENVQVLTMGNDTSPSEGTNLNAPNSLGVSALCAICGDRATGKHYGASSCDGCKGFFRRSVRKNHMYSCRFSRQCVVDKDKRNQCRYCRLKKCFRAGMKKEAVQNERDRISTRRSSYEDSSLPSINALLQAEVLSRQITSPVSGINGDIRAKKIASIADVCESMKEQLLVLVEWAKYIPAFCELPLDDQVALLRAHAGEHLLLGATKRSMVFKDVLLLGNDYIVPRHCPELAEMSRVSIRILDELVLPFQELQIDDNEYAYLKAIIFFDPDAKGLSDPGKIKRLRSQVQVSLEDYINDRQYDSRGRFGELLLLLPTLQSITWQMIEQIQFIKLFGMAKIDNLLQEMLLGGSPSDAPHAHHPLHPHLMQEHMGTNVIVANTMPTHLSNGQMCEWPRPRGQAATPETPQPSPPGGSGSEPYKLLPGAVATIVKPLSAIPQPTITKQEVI
Test: protein-binding microarray
Conditions: COS-7 nuclear extract on double-stranded Agilent 4x180k PBM; binding buffer, salt, pH and temperature not given; high values mean tight binding; double strand, one strand shown; sequences stand for … in …GCCTAGGGAGATTAGAGTATCGGTCGA

Sequence | binding signal (log2 normalized intensity)
GTCCTTTAACAAGGACAAAGGTCAACAAAC | 6.04
GATGAGTGACCTTTGACCTCAGAGAGCCGG | 9.56
TTCATTCTTTAAGGACCACATCAAAGGTCA | 4.7
ACTACCTCAAAGTTTTGTTATCTCTGCTTG | -1.1
CACACCCCAAAAGGTCAATCTGGATTGTAC | 3.23
TGAAAAACACTGGATAAAGTCCATATTCTT | 2.3
GATTGACTCAGGCATTCTGACCTTTGTCTC | 7.05
TCTACTCCCTGTTCTTACACCTGCTCCCCT | 2.87
TCGGGACAAGAGGAATGTTCATTCATTCAC | -0.0238
TTCTTAGAGAGTTGGGCAAGACTCGTGAAA | 1.21
TTCATCTGACTGGAAGAGCCTGCAAGGGAG | -1.06
ATCTGCAGGGCAGCAGACTCAGAAAAATAT | -1.06
GATTACTTGGCACTTAGCACAAGTGACTAT | -0.484
TGAATTTAACCTTTGCTCTCTGAAATGAAG | 4.71
CCACTCTTTTTTAGACTTTGACCTCCATAT | 7.61
AAGAACAGCTTTGGTATTACATTACAACCA | -1.03
CTGCTTTGGTTAATCATTAGAGATGTTCAA | 0.435
CAAATACCATCCCCAGAGCCGGAGCACCAC | 1.27
TTCCTGCACCCGGGCAGCCTGTGGCCAGGC | -1.21
GATAAGAGGCAGTCCTGGCTTGGCCACCTA | -1.12
TGCCTGGAGAGCTAGTAAGGAGCTGAGTCA | -1.28
CTTTTTGATCTTGTCACATTTCAAAAGCTG | -0.486
TCCTTGGCTCTCCCCACTTACTTCCTGATA | 0.385
TTTCTGGGATTTGTACAAGTGATTGGATCT | 1.24

Sequence | binding signal (log2 normalized intensity)
CCTTTGCCCTCCAAACTGAGAGATTTTTTC | 0.459
GAGCTTTTACCTCAAATAAAGGTCAGAGTC | 1.79
ATCTATTATTAGGTACAAACATACTTAGGA | 0.909
TCCTGTAGAATGACCCCCTGGGCTCCAATC | 3.22
TCTCTCTCTCTCGTTTTTTTTTTCCCTGAG | 1.49
GGCATTATTAGCCACAACTGAGTATTTAGC | -0.728
ATGATGGCCAGGGAGTACACCCCTCACTCC | -1.09
AAGGGAACCCTAATCCACATGCTATTATTT | -1.17
TTGCTTATAGCTCAAAGTCCACCAACTCTG | 4.11
GTAATTAATCTGATCGCCCTCCCCCAGAGA | 4.99
TGATTAGAACATTAAGTCCAAATGCTGGTT | 1.2
TTAGACAGTGCTTCCAAAGGACAGGGTTTC | 0.777
CAGAGACCTTTGCTCACGTTTTCCTGCTGA | 1.13
TAACAATTCTTTCTGATAAGAGCATTTTTG | 0.953
GAGCCCAGCAAACCTATAGGACCAGGCTGT | -1.15
TTATACAGCCTTGGAAGACACAGATGGTGT | 1.16
AGGTGCCTGGGATCGAAAGGACATTGTCCA | 1.98
TGGGGCTTAGATAGCAGTGTGAGTGTCAGA | 1.23
AAAGGTGATCTGCTGGAATGAAGACTCACA | -1.15
CACAAGTCCTCACAATAATGAGAAACGCCT | -1.11
AACAAAGAGAAAGGGTCAATGTGATCAGGT | 1.77
GCACAGCTGATTGCTCAACCCAAAGCATGT | -1.1
ACCTTGCAGGCCAGGGAGTGCAGCTGCAGG | -0.904
TCCTTCCCTCAGCAACTGCAAGGCTGACCC | 3.61

Sequence | binding signal (log2 normalized intensity)
TGGGCACTGTCCTAGGTGCTGAAGATGCAA | -0.724
ACTTGTTTTTTCAGGTGTTGCTCTCTTGCC | 1.73
AAGTGCTTGTTCCCTCCATCCAAGGCCCGC | -0.635
AAGTGGTTGTAGCAGTTCACACTCCCACCA | -1.08
GAAAGGGCCTCTCAGGTCAGGGAAGACTGA | -1.08
GCCCTCTCCATGCAGACAGTCCCTCCTCCA | 1.37
TAGATAAGAGCTGAGGAAGTGCTGACCTTT | 5.77
ATATGAAGCATTGCTTGAGTCACTTGGTTT | 1.23
AGCAAGGTCAAAGTGCGTCCTGTGGCAAAG | 3.51
AAGCAGAAGGAGGAGGAGGTTCCTGGAACT | -1.05
CCCTTATCTTCTGGCCACCTCTTCCAGAGT | 0.501
GCACAGAAGGAGAGAGAGGGAGAGTGGCCT | -1.16
GGTGATGTGAACCTCGATCCCTGGCTAAGG | 1.24
CAGACACGCTTGACTGGCTCCACCACTTTG | -1.09
GACAAAGAGCAAGTGACCCTCAGACACACA | 0.268
AATTTGTCTTTTCTCCCCCGATAAGGCTGC | 4.09
TGGTCCTTCAAGTGTGACCCTGAACCTACA | 2.28
GAGAGCAAACTTCAAAGAAGCTGTTGGAAA | -1.22
GAGTGTGACTGTGGTACTCCAAAGGTCAGT | 4.61
TGTGTTCCACAGTCAAGGCCAAAGGTTAAA | 5.02
CTTAGCAAATATTTACTGAATGAATGTCCA | 0.528
ACTTTAACCTTTAGATTACTAGGAATTGAT | 0.914
GAAATATGTAGGTTTGGGGAACTTTGCACT | 3.7
CCACCCTCACAGCTCAATCCAACAAATAGA | -1.12

— publication PMC10726135
